Ten compounds from the supplement of paper PMC4604168 (melanoma cell lines) can be followed below.

Among the test systems are MZ2-MEL; MeWo; RPMI7951; RVH-421; SkMel28; SkMel30; SkMel5; UACC257; UACC62; WM115; WM1716; WM1745; WM3526; WM3619; WM451Lu.
Common to all, as to assay: cell count relative to DMSO control; melanoma cells; higher = more viable cells
Common to all, as to conditions: library dose: low library concentration; 72 h

The list shows a part of the results. Many values rest on one well or one pass, so single values are uncertain.
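Also: cell number obtained by counting DAPI-stained nuclei in high-throughput microscope images with image analysis software, screen run in 1,536-well plates.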

For the compound `O=C(O)c1ccc(-c2c[nH]c3ncc(-c4ccccc4)cc23)cc1C1CCCC1` + Cc1cc([N+](=O)[O-])ccc1NS(=O)(=O)c1cc(Cl)ccc1Cl [FH535] (first compound 0.16 µM, partner dose 1 µM), the cell count with MZ2-MEL was determined as 89.5%; in the assay with MeWo, 90.6%; with RPMI7951, 108%; in the assay with RVH-421, 72.9%; in the assay on SkMel28 it was 79.4%; in the assay with SkMel30 it was 70.4%. Moreover, the cell count in the assay on SkMel5 stood at 89.2%; in the assay with UACC257 it was 93.1%; in the assay on UACC62, 85.5%; in the assay with WM115, 79%; in the assay with WM1716 it was 93.6%; with WM1745, 86.1%. In addition, the cell count was 73.7% in the assay with WM3526, 106% in the assay with WM3619 and 90% in the assay with WM451Lu.

In the case of `O=C(O)c1ccc(-c2c[nH]c3ncc(-c4ccccc4)cc23)cc1C1CCCC1` + COc1cc(N2CCC(N3CCN(C)CC3)CC2)ccc1Nc1ncc(Cl)c(Nc2ccccc2S(=O)(=O)C(C)C)n1 [NVP-TAE684] (first compound 0.16 µM, partner dose 0.08 µM), the cell count is 87.8% in the assay on MZ2-MEL; 83% with MeWo; 81.6% in the assay on RPMI7951; 117% with RVH-421; 87.9% in the assay with SkMel28; 103% in the assay on SkMel30. The cell count in the assay on SkMel5 is 82%; in the assay on UACC257, 84.6%; with UACC62, 78%; in the assay with WM115, 87.2%; with WM1716, 86.9%; in the assay on WM1745, 81.7%. For the same compound, the cell count is 118% with WM3526, 92.7% with WM3619 and 111% in the assay on WM451Lu.

In the case of `C[C@@H]1CCN(C(=O)CC#N)C[C@@H]1N(C)c1ncnc2[nH]ccc12` + Oc1nc(-c2ccc(C(F)(F)F)cc2)nc2c1CSCC2 [XAV939] (first compound 1 µM, partner dose 2 µM), the cell count with MZ2-MEL came out at 95.3%; with MeWo it was 88.7%; in the assay on RPMI7951 it was 102%; in the assay on RVH-421, 84.3%; in the assay on SkMel28, 81.8%; with SkMel30, 125%. Further, the cell count with SkMel5 turned out to be 93.8%; in the assay on UACC257 it was 83.8%; with UACC62, 81.4%; in the assay with WM115, 76.1%; in the assay on WM1716, 72.6%; with WM1745, 86.8%. Further, the values for the cell count in the assay with WM3526, in the assay on WM3619 and in the assay on WM451Lu were 91.2%, 105% and 114%, respectively.

In the case of `CC1(C)NC(=O)N(c2ccc([N+](=O)[O-])c(C(F)(F)F)c2)C1=O` [nilutamide] + COc1ccc(COc2ccc(Cc3cnc(N)nc3N)cc2OC)cc1 [GW2580] (first compound 1 µM, partner dose 1 µM), the cell count with MZ2-MEL amounted to 100%; in the assay on MeWo it was 104%; in the assay on RPMI7951, 95%; in the assay on RVH-421, 93.6%; with SkMel28, 72.3%; in the assay on SkMel30, 110%. Further, the cell count in the assay with SkMel5 stood at 100%; with UACC257, 96.4%; in the assay with UACC62, 109%; in the assay with WM115, 113%; in the assay with WM1716, 91.6%; with WM1745, 88.9%. Also, the cell count is 115% in the assay with WM3526, 84.2% in the assay on WM3619 and 111% in the assay on WM451Lu.

On to `C[C@@H]1CCN(C(=O)CC#N)C[C@@H]1N(C)c1ncnc2[nH]ccc12` + COC(=O)c1sccc1S(=O)(=O)Nc1ccc(Nc2ccccc2)cc1OC [GSK0660] (first compound 1 µM, partner dose 1 µM), for which the cell count in the assay on MZ2-MEL was 96.5%; with MeWo, 104%; with RPMI7951, 87%; with RVH-421 it was 113%; in the assay with SkMel28, 107%; in the assay with SkMel30 it was 109%. The cell count amounted to 105% in the assay on SkMel5; 91.8% in the assay with UACC257; 102% in the assay with UACC62; 97.7% in the assay with WM115; 97% in the assay on WM1716; 92.7% with WM1745. Further, the cell count stood at 93.1% in the assay with WM3526, 109% in the assay with WM3619 and 103% with WM451Lu.

In the case of `COc1cc(Nc2ncc(F)c(Nc3ccc4c(n3)NC(=O)C(C)(C)O4)n2)cc(OC)c1OC` [Tamatinib] + O=C1NC(=O)/C(=C/c2ccc(-c3ccc(F)cc3O)o2)S1 [AS252424] (first compound 0.4 µM, partner dose 1 µM), the cell count was 86% in the assay on MZ2-MEL; 79.6% in the assay with MeWo; 93.7% with RPMI7951; 100% in the assay on RVH-421; 87% in the assay with SkMel28; 83.4% in the assay with SkMel30. Moreover, the cell count with SkMel5 turned out to be 85.4%; in the assay with UACC257 it was 56.8%; in the assay with UACC62, 75.6%; in the assay on WM115 it was 88.4%; with WM1716 it was 94.9%; in the assay on WM1745 it was 70.3%. Further, the cell count in the assay on WM3526 worked out at 71.2%; in the assay with WM3619 it was 111%; with WM451Lu, 93.8%.

Turning to `C[C@@H]1CCN(C(=O)CC#N)C[C@@H]1N(C)c1ncnc2[nH]ccc12` + O=C(Nc1ccccc1)c1cc([N+](=O)[O-])ccc1Cl [GW9662] (first compound 1 µM, partner dose 2 µM), the cell count turned out to be 91% in the assay on MZ2-MEL; 102% in the assay with MeWo; 102% in the assay on RPMI7951; 109% with RVH-421; 95.7% with SkMel28; 97.9% in the assay with SkMel30. The cell count turned out to be 95.9% with SkMel5; 93% in the assay on UACC257; 102% in the assay on UACC62; 109% with WM115; 104% in the assay with WM1716; 106% with WM1745. Besides, the results for the cell count in the assay on WM3526, with WM3619 and in the assay with WM451Lu were 108%, 103% and 123%, respectively.

Consider `COc1cc(Nc2ncc(F)c(Nc3ccc4c(n3)NC(=O)C(C)(C)O4)n2)cc(OC)c1OC` [Tamatinib] + COc1cc2ncnc(Nc3ccc(Oc4ccccc4)cc3)c2cc1OC [SrcI1] (first compound 0.4 µM, partner dose 2 µM), for which the cell count amounted to 85.3% with MZ2-MEL; 94.3% in the assay with MeWo; 88.6% in the assay with RPMI7951; 103% in the assay with RVH-421; 85.4% in the assay on SkMel28; 109% with SkMel30. Besides, the cell count in the assay on SkMel5 came to 89%; in the assay with UACC257, 77.8%; with UACC62, 108%; in the assay on WM115, 86.5%; with WM1716 it was 88.9%; in the assay with WM1745, 60.3%. Also, the cell count came out at 83.6% in the assay on WM3526, 97.5% in the assay with WM3619 and 100% with WM451Lu.

With `COc1cc(Nc2ncc(F)c(Nc3ccc4c(n3)NC(=O)C(C)(C)O4)n2)cc(OC)c1OC` [Tamatinib] + CCCCCCCCCCCC1=C(O)C(=O)C=C(O)C1=O [Embelin] (first compound 0.4 µM, partner dose 1.2 µM), the cell count with MZ2-MEL came out at 93.3%; in the assay on MeWo, 92.2%; with RPMI7951, 93.8%; with RVH-421, 102%; in the assay on SkMel28 it was 79.7%; in the assay on SkMel30, 50.8%. The cell count is 97.2% in the assay on SkMel5; 92.7% in the assay with UACC257; 86.2% in the assay with UACC62; 89.5% in the assay on WM115; 92.8% in the assay with WM1716; 77.3% with WM1745. Moreover, the cell count is 59.8% in the assay with WM3526, 100% in the assay on WM3619 and 87% in the assay on WM451Lu.

As for `C[C@@H]1CCN(C(=O)CC#N)C[C@@H]1N(C)c1ncnc2[nH]ccc12` + COc1ccc(-c2ccc3c(N4CCOCC4)nc(N4C[C@@H](C)O[C@@H](C)C4)nc3n2)cc1CO [KU0063794] (first compound 1 µM, partner dose 0.02 µM), the cell count in the assay on MZ2-MEL came to 95.2%; in the assay on MeWo, 86.1%; with RPMI7951 it was 91.9%; with RVH-421, 118%; with SkMel28 it was 82.5%; in the assay on SkMel30 it was 83.3%. In addition, the cell count worked out at 94.7% in the assay on SkMel5; 91% in the assay on UACC257; 91% with UACC62; 94.7% with WM115; 104% in the assay on WM1716; 84.7% in the assay on WM1745. For the same compound, the cell count worked out at 92.5% in the assay with WM3526, 120% with WM3619 and 87.6% in the assay with WM451Lu.
